{
  "source": "PubChem BioAssay AID1346428",
  "about": "(National Center for Advancing Translational Sciences (NCATS), 2018)",
  "note": "Hit rate of the full screen: of about 48,000 compounds, about 1,200 (2.5%) were called active. Inconclusive results (about 2%) are left out.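 How the source made its calls: active means activation of at least 60% and not above a set upper limit (about 1 call in 100 departs from these limits); inconclusive means activation of 40% to 60%, or above that upper limit; inactive means activation under 40%.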 The list shows a part of the results.",
  "data": [
    {"biological_target": "Probable G-protein coupled receptor 32 (Homo sapiens) (UniProt O75388)", "sequence (O75388 whole entry, looked up)": "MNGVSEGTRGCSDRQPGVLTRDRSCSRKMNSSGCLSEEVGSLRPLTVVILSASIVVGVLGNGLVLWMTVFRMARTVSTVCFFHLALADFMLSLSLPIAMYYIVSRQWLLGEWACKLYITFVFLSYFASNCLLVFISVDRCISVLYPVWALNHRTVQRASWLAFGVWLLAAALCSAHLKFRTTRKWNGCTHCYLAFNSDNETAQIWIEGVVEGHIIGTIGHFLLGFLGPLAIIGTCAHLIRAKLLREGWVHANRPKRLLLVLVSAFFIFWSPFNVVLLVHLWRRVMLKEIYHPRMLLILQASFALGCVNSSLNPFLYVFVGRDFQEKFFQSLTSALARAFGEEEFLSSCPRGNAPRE", "assay": "qHTS for Agonists of Human Resolvin D1 Receptor DRV1; further: 0% is about no effect", "details": "CHO-K1 GPR32 beta-arrestin PathHunter luminescence, 90 min; at 76.9 µM; hits give high values; zero percent set by DMSO-only wells", "in_short": "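Beta-arrestin recruitment read-out: luminescence from complemented beta-Gal in CHO-K1 GPR32 PathHunter cells, measured 1 h after detection reagent at ambient temperature following 90 min compound exposure at 37 °C; DMSO served as basal (EC0) control.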", "values": [
      {"smiles": "COc1ccc(OCc2ccc(-c3nc(C#N)c(NCc4ccc(F)cc4)o3)o2)cc1", "activation": "inactive: -15.2%"},
      {"smiles": "Cc1nc(N2CCCC2)ncc1C(=O)Nc1ccc(OC(F)(F)F)cc1", "activation": "inactive: 39.4%"},
      {"smiles": "Cc1nnc2c3ccccc3nc(Nc3ccc(F)cc3Cl)n12", "activation": "inactive: 4.45%"},
      {"smiles": "CCOc1ccc(-n2c(-c3ccc(Br)cc3)cc3c2CC(C)(C)CC3=O)cc1", "activation": "inactive: -15.9%"},
      {"smiles": "CCOC(=O)c1cc(-c2ccc(F)cc2)n(CCC(=O)Nc2nc3cc(C)c(C)cc3s2)c1C", "activation": "inactive: -15.9%"},
      {"smiles": "Cc1ccc2c(CC(=O)Nc3nnc(C(C)C)s3)coc2c1C", "activation": "inactive: 24.9%"},
      {"smiles": "COc1cc(OC)cc(-n2c(=O)c3sccc3n(Cc3cc(=O)n4c(C)cccc4n3)c2=O)c1", "activation": "inactive: -3.71%"},
      {"smiles": "Cc1cccc(N(C)S(=O)(=O)c2nnc(NC(=O)C(C)(C)C)s2)c1", "activation": "inactive: -10.6%"},
      {"smiles": "Cc1ccc(Cl)cc1NC(=O)Cn1nnc2sc3c(c2c1=O)CCC(C(C)(C)C)C3", "note": "(stereo not drawn)", "activation": "inactive: -9.63%"},
      {"smiles": "COc1ccc(CCNc2ncnc3c2cnn3-c2ccc(F)cc2)cc1", "activation": "active: 66.4%"},
      {"smiles": "Brc1ccc(CN2CCc3nc(Nc4ccccc4)ncc3C2)s1", "activation": "inactive: -23.1%"},
      {"smiles": "O=C(c1ccc2c(c1)N(Cc1ccccc1F)C(=O)c1ccccc1S2=O)N1CCC(Cc2ccccc2)CC1", "note": "(stereo not drawn)", "activation": "inactive: -20.8%"},
      {"smiles": "COc1ccc(N(Cc2cc3cc(OC)ccc3[nH]c2=O)C(=O)c2cccc(Cl)c2)cc1", "activation": "inactive: -10%"},
      {"smiles": "COc1ccc(OC)c(CNC(=O)c2cc3c(=O)oc4ccc(C)cc4c3s2)c1", "activation": "inactive: 3.95%"},
      {"smiles": "CCOC(=O)CSc1nnc(-c2ccc(OC)cc2)o1", "activation": "inactive: -6.44%"},
      {"smiles": "CCN(CC)C(=O)c1sc2c(c1C)c(=O)n(-c1ccccc1)c(=O)n2CC(=O)N(CC)c1cccc(C)c1", "activation": "inactive: -15.3%"},
      {"smiles": "COc1cc(C(=O)Nc2cc(C)c(O)c(-c3nc4cc(Cl)ccc4o3)c2)cc(OC)c1OC", "activation": "inactive: -4.01%"},
      {"smiles": "CCCOc1ccc(C(=O)N(Cc2ccc(Cl)cc2)Cc2ccco2)cc1", "activation": "inactive: -34.7%"},
      {"smiles": "Cc1cn2c(=O)cc(COC(=O)COc3ccc(C)c(C)c3)nc2s1", "activation": "inactive: -8.39%"},
      {"smiles": "CCCCN(C)C(=O)CN1C(=O)c2cccnc2Oc2ccc(Cl)cc21", "activation": "inactive: -11.7%"},
      {"smiles": "CN(C(=O)CSc1nncn2c1cc1occc12)c1ccccc1", "activation": "inactive: -26%"},
      {"smiles": "COc1cc(NC(=O)CCS(=O)(=O)c2ccc(Br)cc2)cc(OC)c1", "activation": "inactive: -7%"},
      {"smiles": "Cc1ccc(CNC(=O)c2ccc3c(c2)NC(=O)C(CS(=O)(=O)Cc2cccc(C)c2)N3)cc1", "note": "(stereo not drawn)", "activation": "inactive: -33.9%"},
      {"smiles": "CC(CCc1ccc2c(c1)OCO2)NN", "note": "(stereo not drawn)", "activation": "inactive: 44.1%"},
      {"smiles": "COc1ccc(Cn2ccn(CC(=O)Nc3cc(C)ccc3C)c(=O)c2=O)cc1", "activation": "inactive: -13.1%"},
      {"smiles": "O=C(NCc1cccs1)c1ccc2c(c1)sc1nc(-c3ccccc3)cn12", "activation": "inactive: -5.66%"},
      {"smiles": "CC(C)c1ccc(-c2noc(SCC(=O)N3CCN(c4ccccc4F)CC3)n2)cc1", "activation": "inactive: 6.32%"},
      {"smiles": "Cn1c(CNC(=O)CSc2nc(-c3ccccc3F)nc3cc(=O)[nH]n23)nc2ccccc21", "activation": "inactive: -45.1%"},
      {"smiles": "Cc1ccc(NC(=O)Cn2c(=O)ccc3cc(S(=O)(=O)N4CCCC4)ccc32)cc1C", "activation": "inactive: 12%"},
      {"smiles": "Cc1c(C(=O)N2CCC(C(=O)Nc3ccc(F)c(Cl)c3)CC2)sc2nc[nH]c(=O)c12", "activation": "inactive: -3.97%"},
      {"smiles": "COc1cc(CN(C(=O)c2ccccc2)c2ccccn2)cc(OC)c1OC", "activation": "inactive: 11.4%"},
      {"smiles": "CCCOc1ccc(C2C(=O)N(C3CCCCCC3)CC(=O)N2C(C)C)cc1OC", "note": "(stereo not drawn)", "activation": "inactive: -11.1%"},
      {"smiles": "Cc1cc2nn(-c3ccc(F)cc3)nc2cc1NC(=O)c1ccc(C(C)(C)C)cc1", "activation": "inactive: -5.68%"},
      {"smiles": "COc1ccc(-c2cn3cccnc3n2)cc1NC(=O)c1ccccc1C(F)(F)F", "activation": "inactive: -0.393%"},
      {"smiles": "COc1ccc2c(c1)c(=O)c(C(=O)c1ccc(F)cc1)cn2CC(=O)Nc1ccc2c(c1)OCCO2", "activation": "inactive: -9.65%"},
      {"smiles": "CCCn1c(CNC(=O)c2ccc(F)cc2)nc2ccccc21", "activation": "inactive: -5.87%"},
      {"smiles": "O=C(CCCN1C(=O)C(c2ccccc2)Oc2cccnc21)Nc1ccccc1C(F)(F)F", "note": "(stereo not drawn)", "activation": "inactive: -6.7%"},
      {"smiles": "Cc1ccc2oc(-c3ccc(C)c(NC(=O)c4ccc(N5CCC(C)CC5)c([N+](=O)[O-])c4)c3)nc2c1", "activation": "inactive: -0.0961%"},
      {"smiles": "Cc1cccc(NC(=O)c2ccc3snnc3c2)c1C", "activation": "inactive: -23.5%"},
      {"smiles": "O=c1c2cc3c(cc2n(Cc2ccc(F)cc2)c(=O)n1Cc1nc(-c2ccccc2)no1)OCO3", "activation": "inactive: -4.86%"},
      {"smiles": "CC(C)CN(CCCNC(=O)CN1N=C(c2ccc(Cl)cc2)CCC1=O)CC(C)C", "activation": "inactive: -15.7%"},
      {"smiles": "COc1ccc2c(c1)CCc1c(C(=O)Nc3c(C)nn(Cc4ccccc4C)c3C)noc1-2", "activation": "inactive: 9.65%"},
      {"smiles": "Clc1ccc2c(c1)NC(c1ccncc1)=NC(c1cccs1)=N2", "activation": "inactive: -26.7%"},
      {"smiles": "COC(=O)c1c(SC)nc2ccccc2c1OCc1ccc(Cl)cc1", "activation": "inactive: -10.2%"},
      {"smiles": "CCOc1ccccc1NC(=O)C(CC(C)C)NS(=O)(=O)c1ccc2c(c1)oc(=O)n2C", "note": "(stereo not drawn)", "activation": "inactive: 5.85%"},
      {"smiles": "COc1cc(CNC(=O)c2ccc3nc(CCc4ccccc4)oc3c2)cc(OC)c1OC", "activation": "inactive: -28.6%"},
      {"smiles": "CCN1CCN(C(=O)c2cnn(-c3cccc(Cl)c3)c2C2CCN(C(=O)OC(C)(C)C)CC2)CC1", "activation": "inactive: -7.11%"},
      {"smiles": "CNS(=O)(=O)c1cn(CC(=O)N2CCN(c3cccc(C)c3C)CC2)cc1S(=O)(=O)NC", "activation": "inactive: -5.54%"},
      {"smiles": "Cc1ccc(S(=O)(=O)N(Cc2nc(-c3cccc(C)c3)no2)C2CCCCC2)cc1", "activation": "inactive: -22.6%"},
      {"smiles": "O=c1cc(-c2ccccc2)nc(SCc2nc(-c3ccc(Cl)cc3)no2)[nH]1", "activation": "inactive: -3.66%"},
      {"smiles": "O=C(COCc1cc(-c2ccc3c(c2)OCO3)on1)N1CCN(c2cccc(Cl)c2)CC1", "activation": "inactive: -10.3%"},
      {"smiles": "Cc1ccsc1C(=CCCN1CCC[C@@H](C(=O)O)C1)c1sccc1C", "activation": "inactive: -2.94%"},
      {"smiles": "COc1ccccc1CCNC(=O)C1CCN(c2nnc(-n3cccc3CNc3ccc(C)cc3)s2)CC1", "activation": "inactive: -33.6%"},
      {"smiles": "COc1ccc(N2CCN(c3csc4ccc(Cl)cc4c3=O)CC2)cc1", "activation": "inactive: -38.7%"},
      {"smiles": "COc1ccc(Cl)cc1NC(=O)c1cn(C2CCCCC2)c(=O)c2c1c1ccccc1n2C", "activation": "inactive: 10.8%"},
      {"smiles": "CCOc1ccc(Nc2nc3cc(Cl)c(Cl)cc3nc2-n2nc(C)cc2C)cc1", "activation": "inactive: -0.122%"},
      {"smiles": "Cc1c(C(=O)N(Cc2ccc(N(C)C)cc2)CC2CCCO2)oc2ccc(Cl)cc12", "note": "(stereo not drawn)", "activation": "inactive: -22.5%"},
      {"smiles": "NS(=O)(=O)c1ccc(NC(=O)CN2C(=O)COc3ccc(Cl)cc32)cc1", "activation": "active: 92.8%"},
      {"smiles": "Cc1ccc(C)c(S(=O)(=O)c2nnn3c2nc(NC(C)C)c2sccc23)c1", "activation": "inactive: -9.93%"},
      {"smiles": "O=C(O)c1ccc2nc(-c3cc4cccc(O)c4oc3=O)[nH]c2c1", "activation": "inactive: -14.5%"},
      {"smiles": "COc1ccc(CNC(=O)c2cc(-c3ccc(C)cc3)nc3n[nH]c(-c4ccc(Br)cc4)c23)cc1", "activation": "inactive: -8.82%"},
      {"smiles": "CCN(c1ccccc1)c1ccc2cc(S(=O)(=O)N3CCCC3)ccc2n1", "activation": "inactive: -13.6%"},
      {"smiles": "Cc1ccc(-n2nc(CO)c(C(=O)NCCCc3ccccc3)n2)cc1C", "activation": "inactive: -23.5%"},
      {"smiles": "COc1ccccc1Cn1cc(C(=O)c2ccc(C)cc2)c(=O)c2cc(C)ccc21", "activation": "inactive: 6.81%"},
      {"smiles": "CCOC(=O)c1c(C)[nH]c(C)c1S(=O)(=O)N1CCCC(C(=O)Nc2ccc(C)cn2)C1", "note": "(stereo not drawn)", "activation": "inactive: -2.99%"},
      {"smiles": "CCOc1ccc(Nc2ncnc3c2nc2n3CCCC2)cc1", "activation": "inactive: 12.3%"},
      {"smiles": "O=C1OC(CN2CCOCC2)CN1/N=C/c1ccc([N+](=O)[O-])o1", "note": "(stereo not drawn)", "activation": "inactive: 11.9%"},
      {"smiles": "CCc1ccccc1Nc1nn2c(=O)c3ccc(C(=O)NCc4ccccc4OC)cc3nc2s1", "activation": "inactive: 4.15%"},
      {"smiles": "CCOc1ccc(NC(=O)CSc2ccc(-c3sc(-c4ccccc4)nc3C)nn2)cc1", "activation": "inactive: -13.1%"},
      {"smiles": "CCOc1ccccc1CNC(=O)c1c(C)oc2ncnc(N3CCOCC3)c12", "activation": "inactive: -10.7%"},
      {"smiles": "Cc1ccccc1C(=O)NC1(C(F)(F)F)N=C(c2ccccc2)N(C2CCCCC2)C1=O", "note": "(stereo not drawn)", "activation": "inactive: -10.8%"},
      {"smiles": "CCOc1ccc2nc(Cl)c(C3CC(c4ccc(OC)cc4)=NN3S(C)(=O)=O)cc2c1", "note": "(stereo not drawn)", "activation": "inactive: -9.78%"},
      {"smiles": "CCOC(=O)CNC(=O)Nc1cc(C(=O)NCc2ccccc2OC)ccc1N1CCCC1", "activation": "inactive: -12.8%"},
      {"smiles": "CCOC(=O)c1oc2ccc(S(=O)(=O)n3nc(-c4cc(OC)c(OC)c(OC)c4)cc3N)cc2c1C", "activation": "inactive: -16.3%"},
      {"smiles": "CC(C)C(=O)Nc1ccccc1OCc1cc(=O)n2ccccc2n1", "activation": "inactive: -7.69%"},
      {"smiles": "COc1ccc(Cl)cc1NC(=O)C1CCCN(c2ncnc3onc(C)c23)C1", "note": "(stereo not drawn)", "activation": "inactive: 5.32%"},
      {"smiles": "CCOc1ccc(NC(=O)C2CCCN(c3ccc(Sc4ccc(C)cc4)nn3)C2)cc1", "note": "(stereo not drawn)", "activation": "inactive: 9.69%"},
      {"smiles": "O=C(NC(=O)c1ccccc1)Nc1ccc(-c2cc(C(F)(F)F)nn2-c2ccccc2)cc1", "activation": "inactive: 0.839%"},
      {"smiles": "COC(=O)C(CCSC)NC(=O)c1cc2c(n(-c3ccc(Cl)cc3)c1=O)CCCC2=O", "note": "(stereo not drawn)", "activation": "inactive: 15.5%"},
      {"smiles": "CCC(Oc1ccccc1F)C(=O)N1CCC(c2nc3ccccc3s2)CC1", "note": "(stereo not drawn)", "activation": "inactive: 48.5%"},
      {"smiles": "Cc1cccc(N(C)C(=O)CCS(=O)(=O)c2ccc3c(c2)oc(=O)n3C)c1", "activation": "inactive: -1.11%"},
      {"smiles": "CCOC(=O)c1c(S(=O)(=O)N2CCC(C(=O)NCc3ccc(F)cc3)CC2)c(C)n(C)c1C", "activation": "inactive: 6.3%"},
      {"smiles": "CN(C)S(=O)(=O)c1ccc2c(c1)N(CC(=O)Nc1ccc(OC(F)(F)F)cc1)C(=O)CS2", "activation": "inactive: 0.997%"}
    ]}
  ]
}
